Screen size: about 46,000 compounds; about 60 (0.1%) were called active. About 3% were inconclusive and are not listed. Calls follow the shape of the dose curve; as a rule, active = well fitted inhibition curve with a large enough effect; inconclusive = small, poorly fitted or top-dose-only effect; inactive = no such curve, though single readings can be large or run the other way. Some of the results follow.
experiment: Primary qHTS assay for Inhibitors of ovarian cancer metastasis using an organotypic tumor microenvironment (TME) model.; also: nearly all actives have a fitted effect of over 65% in size;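 as to Potency: count of GFP cancer cells still attached after washing and fixation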;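 as to activity change, negative = inhibition: plate controls were DMSO wells for no effect and tomatine positive control wells for full effect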; conditions: SKOV3ip1-GFP adhesion/invasion on 3D omental model, fluorescence; series mostly up to 45.8 µM; activity change, negative = inhibition: at the top concentration
In short: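 qHTS, 4-pt dose (0.36-46 umol/L); SKOV3ip1-GFP, 1,200 cells/well, no FBS; primary omental fibroblast/mesothelial co-culture 48 h pre-grown; 2 h RT + 16 h 37 C; PBS wash, 4% PFA; GFP count 488/509 nm.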
Potency is read from the fitted curve at half-maximal effect.

Compound | outcome | activity change, negative = inhibition | Potency
Cc1ccc(-n2nc(C(=O)N(C)Cc3ccccc3)c3c4ccccc4n(C)c3c2=O)cc1 | inactive |  | 
Cc1ccc(C(=O)N(c2ccc(C)cc2)S(=O)(=O)c2ccc(Cl)cc2)cc1 |  | inactive: -2.8% | 
O=c1c2ccccc2n2c(-c3ccccc3F)nnc2n1CCc1ccccc1 |  | inactive: 2.35% | 
COc1cc(OC)c(N(C)C(=O)c2cc3c(=O)oc4ccccc4c3s2)cc1Cl |  | inactive: 5.65% | 
CC(C)c1ccc(NC(=O)c2ccc3c(O)c(S(=O)(=O)c4ccccc4)c(=O)[nH]c3c2)cc1 |  | inactive: -3.67% | 
Cc1ccc(NC(=O)C(Cc2ccccc2)N2Cc3ccccc3C2=O)cc1Cl (stereo not given) |  | inactive: 4.09% | 
Cc1ccc(-n2c(=O)c3c(c4cc(C)ccc4n3C)n(Cc3ccc(F)cc3)c2=O)cc1 |  | inactive: -1.44% | 
CCCn1c(CCC(=O)Nc2ccc(C)c(Cl)c2)nc2cccnc21 |  | inactive: -17.5% | 
Cc1oc(-c2ccc(C(=O)NCc3ccccc3Cl)cc2)nc1CN1CCc2ccccc21 | inactive |  | 
COc1ccc(C)cc1NC(=O)c1cc(S(=O)(=O)N2CCc3ccccc3C2)ccc1F |  | inactive: 13.5% | 
CCN(C(=O)c1c(C)oc2ncn(CC(C)C)c(=O)c12)c1cccc(Cl)c1 |  | inactive: 4.29% | 
CCCCNC(=O)CCn1c(=O)c2cccn2c2cccnc21 |  | inactive: -6.33% | 
Cc1ccc(S(=O)(=O)C(CNC(=O)C(=O)NCCc2ccc(Cl)cc2)c2cccs2)cc1 (stereo not given) |  | inactive: -0.627% | 
Cc1ccc(CCNC(=O)c2c[nH]c3ccc(S(=O)(=O)Nc4cccc(C(F)(F)F)c4)cc3c2=O)cc1 |  | inactive: -4.3% | 
CCC1=C(c2ccc(C)cc2)S(=O)(=O)N=C1N1CCC(C(=O)NCCc2ccc(Cl)cc2)CC1 |  | inactive: 1.94% | 
O=C(CC1N=C2c3ccccc3N=C(SCc3cccc(Cl)c3)N2C1=O)NCCc1ccccc1 (stereo not given) |  | inactive: 0.261% | 
COc1ccc(C(CC(=O)Nc2cc(OC)c(OC)c(OC)c2)N2Cc3ccccc3C2=O)cc1 (stereo not given) |  | inactive: 0.595% | 
O=C(Nc1cnn(Cc2ccc(Cl)cc2Cl)c1)c1noc2c1CCc1ccccc1-2 | inactive |  | 
O=C(CCS(=O)(=O)c1cc2c3c(c1)CCN3C(=O)CC2)Nc1cccc(Br)c1 | inactive |  | 
CCOc1ccc(CCNC(=O)c2ccc3c(c2)N(Cc2ccccc2F)C(=O)c2ccccc2S3=O)cc1OCC (stereo not given) |  | inactive: -11.7% | 
COc1ccc(CCNS(=O)(=O)c2cc(-c3onc(C)c3C)ccc2OC)cc1OC |  | inactive: 4.86% | 
O=C(Cn1c(=O)nc(-c2ccccc2)c2cc(Cl)ccc21)NCc1ccc(Cl)cc1 |  | inactive: 14.1% | 
CCCS(=O)(=O)N1CC(=O)N(c2ccc(C)cc2C)C(C)(C(=O)NC2CCCCCC2)C1 (stereo not given) | inactive |  | 
O=c1c(S(=O)(=O)c2ccccc2)cn(Cc2cccc(F)c2)c2cc(N3CCCC3)c(F)cc12 |  | inactive: 32.7% | 

Compound | outcome | activity change, negative = inhibition | Potency
COc1ccccc1N1CCN(S(=O)(=O)CCNC(=O)Cc2ccc(Cl)cc2)CC1 |  | inactive: -1.69% | 
CCOC(=O)N1CCc2c(sc(NCc3cccs3)c2C(=O)Nc2ccc(OC)cc2OC)C1 |  | inactive: -1.03% | 
CCCCN(C)CCNC(=O)CN1C(=O)CSc2ccc(S(=O)(=O)N3CCCCC3)cc21 | inactive |  | 
Cc1cc2c(cc1S(=O)(=O)CCC(=O)N1CCCCC1C)OCC(=O)N2 (stereo not given) | inactive |  | 
O=C(COCc1cc(-c2ccc3c(c2)OCO3)on1)Nc1cc(C(F)(F)F)ccc1Cl |  | inactive: -0.0558% | 
CCN1CCN(CCCNC(=O)Cn2c(-c3cccs3)cc3cc(F)ccc32)CC1 |  | inactive: 7% | 
CCc1ccc(NC(=O)CSc2nc(=O)n(Cc3ccncc3)c3c2CCC3)cc1 |  | inactive: -1.07% | 
Cc1ccc(C)c(Nc2nn3c(=O)c4cc5c(cc4nc3s2)OCO5)c1 |  | inactive: 3.55% | 
Cc1ccc2oc(=O)n(Cc3ccccc3Cl)c2c1 |  | inactive: 1.94% | 
Cc1ccc2oc(-c3cc(NC(=O)c4oc5ccccc5c4C)ccc3Cl)nc2c1 |  | inactive: -7.58% | 
CN(Cc1ccc(F)cc1)S(=O)(=O)c1nnc(NC(=O)c2ccccc2)s1 | inactive |  | 
CCCNC(=O)C1CCC(CNS(=O)(=O)c2ccc3c(c2)CC(C)N3C(C)=O)CC1 (stereo not given) |  | inactive: 4.59% | 
Clc1cccc(-n2nnnc2NCc2ccccc2Oc2ccccn2)c1Cl |  | inactive: 0.741% | 
CCc1ccc(OCC(=O)Nc2cc(-c3nc4cc(C)ccc4o3)ccc2C)cc1 |  | inactive: 2.47% | 
Cc1ccc(C(=O)NCc2ccccc2)cc1NC(=O)c1nsc2ccccc12 |  | inactive: 2.4% | 
CCOc1ccc(Nc2ncnc3scc(-c4ccc(OC)cc4)c23)cc1 |  | inactive: 16.2% | 
Cc1ccc(NC(=O)c2oc3ccccc3c2NC(=O)C23CC4CC(CC(C4)C2)C3)cc1 |  | inactive: -6.98% | 
Cc1cc(-c2ccc(C)c(S(=O)(=O)NCc3cccs3)c2)on1 |  | inactive: -18.8% | 
CCc1ccc(N2C(=O)CN(S(=O)(=O)CC)CC2(C)C(=O)NC2CCCCC2)cc1 (stereo not given) |  | inactive: -4.29% | 
Cn1cc(C(=O)NCCc2ccccc2)c(=O)c2cc(S(=O)(=O)N3CCCCC3)ccc21 |  | inactive: 3.64% | 
CC(C)(C)OC(=O)N1CCC(c2c(C(=O)N3CCN(Cc4ccccc4)CC3)cnn2-c2ccc(Cl)cc2)CC1 | inactive |  | 
CCOC(=O)c1c(C)[nH]c(C)c1S(=O)(=O)N1CCC(C(=O)Nc2ccc(C)c(N(C)C)c2)CC1 |  | inactive: 17.2% | 
CCC1CCCCN1C(=O)CCS(=O)(=O)c1cc2c(cc1C)NC(=O)CO2 (stereo not given) | inactive |  | 
O=c1c2oc3ccccc3c2n(Cc2ccc(Cl)cc2)c(=O)n1Cc1ccccc1 |  | inactive: 6.46% | 

Compound | outcome | activity change, negative = inhibition | Potency
Cc1ccc(Nc2c(-c3ccc(C)o3)nc3cccc(C)n23)cc1 |  | inactive: -25.6% | 
CC=CCC=CCCC(=O)[C@H]1O[C@@H]1C(N)=O |  | inactive: -0.0997% | 
O=C(CNC(=O)c1ccccc1)OCc1cc(=O)n2nc(C3CC3)sc2n1 | inactive |  | 
COc1ccc(-c2cc(=O)oc3c4c(ccc23)OCN(Cc2ccccc2)C4)cc1 |  | inactive: 4.7% | 
O=C(Nc1cc(F)ccc1F)c1ccc(CN2CC(=O)N3CCCCC3C2=O)cc1 (stereo not given) | inactive |  | 
CCS(=O)(=O)c1ncc(Cl)c(C(=O)NCc2ccccc2)n1 |  |  | active: 10 µM
Cc1cc(C)cc(-n2c(SCC(=O)N3CCCCCC3)nc3c([nH]c4ccccc43)c2=O)c1 | inactive |  | 
O=C(Nc1cccc(C(F)(F)F)c1)C1CCN(S(=O)(=O)c2cccs2)CC1 |  | inactive: -5.96% | 
CC(=O)c1ccc(NC(=O)CSc2nnc(N)s2)cc1 | inactive |  | 
COc1cc(Cl)c(C)cc1NC(=O)Cn1c(C)c2cnn(-c3ccccc3)c(=O)c2c1C | inactive |  | 
CC(=O)Nc1c(C)nn(-c2ccccc2)c1N1CCC(C(=O)NCc2ccc(F)cc2)CC1 | inactive |  | 
C=C(C)Cn1c(SCC(=O)c2ccccc2)nc2sc3c(c2c1=O)CCCC3 |  | inactive: -7.52% | 
CCn1cc2nc(SCc3cccc(C(F)(F)F)c3)n(Cc3ccc(OC)cc3)c(=O)c2n1 |  | inactive: -9.02% | 
COc1cc2c(cc1NC(=O)COc1ccc(Cl)cc1)oc1ccccc12 |  | inactive: 11.2% | 
O=C(Nc1ccc(F)cc1)c1cc2cc3ccc(Cl)cc3nc2o1 |  | inactive: 4.87% | 
Cc1ccc(-c2noc(-c3nnn(-c4ccc(Br)cc4F)c3C)n2)cc1 | inactive |  | 
Cc1nnc(N2CCC(C(=O)NC(C)C)CC2)c2nn(-c3ccccc3)c(C)c12 |  | inactive: -0.366% | 
Clc1ccccc1CN1CCc2nc(N3CCN(c4ncccn4)CC3)ncc2C1 |  | inactive: -6.33% | 
CC(=O)Nc1ccc(C(=O)Nc2ccc3c(c2)N(C2CCCC2)C(=O)c2ccccc2S3)cc1 |  | inactive: -5.1% | 
Cc1ccccc1CNCc1c(C(=O)O)c(C)n(Cc2ccc(F)cc2Cl)c1C |  | inactive: -6.98% | 
COc1ccc(-n2ncc3c2ncn2nc(Cc4ccccc4)nc32)cc1 |  | inactive: -0.823% | 
Cc1cccc(CSc2nnc(CCCCCN)o2)c1 |  | inactive: 12.2% | 
Cc1ccc(C)c(NC(=O)c2nnn(Cc3ccc(F)cc3Cl)c2N)c1 |  | inactive: -0.327% | 
Cn1nc(-c2ccccc2F)c2cc(C(=O)NCc3cccc(Cl)c3)sc21 |  | inactive: 37.5% | 

Compound | outcome | activity change, negative = inhibition | Potency
Cc1cc(C)cc(NC(=O)c2cc(S(=O)(=O)N3CCCC3)ccc2F)c1 |  | inactive: 1.96% | 
Cc1nc(-c2cccc(S(=O)(=O)N3CCC(C(=O)NCc4ccccc4Cl)CC3)c2)no1 |  | inactive: 20.9% | 
CCc1c(C)sc2c1CCN(C(=O)Nc1cc(C)ccc1C)C2c1ccc(OC)cc1 (stereo not given) |  | inactive: -0.589% | 
CC[C@H](C)C(=O)O[C@H]1C[C@H](O)C=C2C=C[C@H](C)[C@H](CC[C@@H](O)C[C@@H](O)CC(=O)O)[C@H]21 |  | inactive: -13.6% | 
COc1ccc(-n2ncc(C(=O)NCCN3CCOCC3)c2C2CCN(C(=O)OC(C)(C)C)CC2)cc1 |  | inactive: -4.5% | 
COc1ccc(OC)c(CCNC(=O)Cn2nc(C)n3c(cc4sccc43)c2=O)c1 | inactive |  | 
COc1ccc(CCNS(=O)(=O)c2ccc(N3CCCCS3(=O)=O)cc2)cc1 |  | inactive: -10% | 
O=C(c1cc2c(s1)-c1ccccc1OC2)N1CCN(c2ccc(F)cc2)CC1 |  | inactive: 3.11% | 
CCc1ccc(C=C2SC(=S)NC2=O)cc1 |  | inactive: -4.26% | 
COc1cc(OC)c(NC(=O)N2CCc3cc(S(=O)(=O)N4CCC(C)CC4)ccc32)cc1Cl |  | inactive: 19.3% | 
O=c1oc2ccc3ccccc3c2cc1-c1nnc(Nc2cccc(C(F)(F)F)c2)s1 |  | inactive: -5.41% | 
O=C(NCCc1ccccc1)c1cnc2sc(N3CCCCC3)nn2c1=O |  | inactive: -5.07% | 
CCC1Oc2ccccc2N(CC(=O)NCCc2ccc(OC)c(OC)c2)C1=O (stereo not given) | inactive |  | 
CC(=O)c1cccc(NC(=O)C2CCN(S(=O)(=O)c3ccccc3)CC2)c1 |  | inactive: 0.336% | 
COc1ccc(CNC(=O)c2nn(C)c3c2CS(=O)(=O)c2ccccc2-3)cc1 |  | inactive: -3.34% | 
CCC1CCCCN1S(=O)(=O)c1cc2c(cc1C)NC(=O)CO2 (stereo not given) |  | inactive: 0.574% | 
Cc1ccc(CN(C(=O)COc2ccc([N+](=O)[O-])cc2)c2ccccn2)o1 |  | inactive: 2.87% | 
Cc1ccc(Nc2ncc(C(=O)Nc3ccc(F)cc3F)c3ccccc23)cc1Cl | inactive |  | 
CC(=O)c1ccc(NC(=O)CSc2ccc3nnc(CCNS(=O)(=O)c4ccc(C)cc4)n3n2)cc1 |  | inactive: -7.09% | 
O=c1[nH]c2ccc(NCc3ccc(-c4ccc(F)cc4)o3)cc2[nH]1 |  | inactive: -1.48% | 
CC1CCC(NC(=O)Cn2ncc3c4ccccc4n(Cc4ccc(F)cc4)c3c2=O)CC1 (stereo not given) |  | inactive: -9.66% | 
c1ccc2c(c1)ncc1nncn12 | inactive |  | 
CCOC(=O)Cc1c(C)nc2c(-c3ccc(Cl)cc3)c(C(F)(F)F)nn2c1C |  | inactive: -7.2% | 

Source: PubChem BioAssay AID1963576 (National Center for Advancing Translational Sciences (NCATS), 2024)
